Source: patent US20260207533A1, “METHODS FOR TREATING VARIOUS CONDITIONS AND INDICATIONS WITH AGONISTS AND ANTAGONISTS” (CuraSen Therapeutics, Inc., priority 2022, published 2026)

How the values were obtained:
[1] = in vivo
clinical = conditions: human, in vivo, po, 5 mg
healthy volunteers [2] = assay: Safety, tolerability and heart rate after clenbuterol with or without nadolol, healthy volunteers; conditions: for mean increase in supine heart rate from baseline: no nadolol
[3] = Plasma pharmacokinetics of clenbuterol and nadolol
healthy volunteers [4] = assay: Cerebral blood flow / cerebral perfusion by ASL MRI in healthy subjects
subjects with MCI or PD [5] = assay: Safety, tolerability and heart rate after clenbuterol with or without nadolol, subjects with MCI or PD; type: in vivo, human
subjects with MCI or PD [6] = type: in vivo, human
[7] = 24 hours after a single dose of 80 μg clenbuterol

CC(C)(C)NCC(O)COc1cccc2c1CC(O)C(O)C2 (stereo not shown) [nadolol]
exposure versus dose [1]: approximately dose-proportional increases in exposure | Cmax (clinical): 4.39 ng/mL

CC(C)(C)NCC(O)c1cc(Cl)c(N)c(Cl)c1 (stereo not shown) [clenbuterol]
mean increase in supine heart rate from baseline (healthy volunteers [2]; 3 hours following 20 μg clenbuterol): 7.5 bpm | mean increase in supine heart rate from baseline (healthy volunteers [2]; 3 hours following 40 μg clenbuterol): 7.5 bpm | mean increase in supine heart rate from baseline (healthy volunteers [2]; 3 hours following 80 μg clenbuterol): 9.2-12.38 bpm | severity of treatment-emergent adverse events (healthy volunteers [2]; across all subjects enrolled (healthy volunteers and MCI/PD), transient): mild-to-moderate | effects on supine, sitting or standing blood pressure (healthy volunteers [2]; clenbuterol in the absence of nadolol): no clinically meaningful effects | TEAEs considered to be related to clenbuterol, subjects (healthy volunteers [2]; healthy volunteers): 12/25 | time of maximum effects on hypokalemia and hyperglycemia after administration (healthy volunteers [2]; healthy volunteers and subjects with MCI or PD): between 90 minutes and 5 hours | exposure versus dose ([3]; 20 μg-160 μg clenbuterol): approximately dose-proportional increases in exposure | estimated dose (dose equivalent from PK modeling of exposure) [3, 7]: 50 µg | estimated dose (dose equivalent from PK modeling of exposure) ([3]; 48 hours after a single dose of 80 μg clenbuterol): 30 µg | plasma half-life t1/2 ([3]; clenbuterol, determined in only some subjects, highly variable): 12 to 31 h | mean (±SEM) percent relative displacement (MRD) of CBF from baseline in the hippocampus (healthy volunteers [4]; 160 μg clenbuterol single dose, absence of nadolol, healthy volunteers): 28.5±4.1% | CBF versus baseline (healthy volunteers [4]; 3 hours after a single dose of 80 μg clenbuterol): increases in CBF from baseline are evident | CBF versus baseline (healthy volunteers [4]; [7]): decreased but still evident | CBF versus baseline (healthy volunteers [4]; 48 hours post dose, single dose of 80 μg clenbuterol): returned to baseline | increase in heart rate (subjects with MCI or PD [5]; following 80 μg clenbuterol, no nadolol): 10.67-14.65 bpm | TEAEs considered to be related to clenbuterol, subjects (subjects with MCI or PD [5]; subjects with neurodegenerative disease): 6/8 | MRD of CBF in the hippocampus (subjects with MCI or PD [6]; 80 μg clenbuterol without nadolol, Day 2, 4 subjects): 17.55±6.37% | mean (±SEM) MRD of CBF in hippocampus (subjects with MCI or PD [6]; human, in vivo): 14.7±10.6% and 14.72±10.56% | mean (±SEM) MRD of CBF in whole brain (subjects with MCI or PD [6]; human, in vivo): 4.8±12.6%

Values joined by “and” are separate entries in the source; they are usually repeats but may differ in a detail not shown here. Equal entries are not always repeated. Where two headings read alike, the source gives them in different places.
